Reference: the supplement of paper PMC3334620
The full ranking holds about 33,000 sequences; the median of “E-score (-0.5 to 0.5)” is about -0.032, and the highest 2% start at about 0.36. This is one part of the list.

These sequences were tested against T1, Sko1 (UniProt Q02100) (assay: PBM E-score (8-mer binding enrichment) (E-score (-0.5 to 0.5)); higher = stronger / more preferred TF binding; most listed sequences are background and not binding sites). Conditions: protein concentration: 200 nM; construct: GST-full length.
T1 sequence: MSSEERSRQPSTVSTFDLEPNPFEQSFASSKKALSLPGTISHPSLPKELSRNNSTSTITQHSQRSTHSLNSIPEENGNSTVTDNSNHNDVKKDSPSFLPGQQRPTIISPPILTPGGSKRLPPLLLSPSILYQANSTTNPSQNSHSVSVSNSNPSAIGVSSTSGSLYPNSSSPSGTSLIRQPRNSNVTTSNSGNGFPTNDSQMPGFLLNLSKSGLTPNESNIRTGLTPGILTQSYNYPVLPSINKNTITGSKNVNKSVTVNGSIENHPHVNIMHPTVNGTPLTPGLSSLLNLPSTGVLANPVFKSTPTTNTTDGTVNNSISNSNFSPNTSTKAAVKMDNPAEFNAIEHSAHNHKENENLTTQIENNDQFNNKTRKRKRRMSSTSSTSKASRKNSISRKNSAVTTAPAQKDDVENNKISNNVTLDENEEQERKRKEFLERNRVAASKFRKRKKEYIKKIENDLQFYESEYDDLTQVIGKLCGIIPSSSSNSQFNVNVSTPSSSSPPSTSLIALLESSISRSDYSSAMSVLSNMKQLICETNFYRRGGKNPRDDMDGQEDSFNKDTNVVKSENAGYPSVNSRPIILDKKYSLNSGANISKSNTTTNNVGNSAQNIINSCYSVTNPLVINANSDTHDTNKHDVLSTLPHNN
Procedure, shortened: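 PURExpress in vitro transcription/translation supplied GST-tagged yeast transcription factors, either full-length or DNA-binding domain. Applied at about 100-200 nM to universal all-10-mer Agilent arrays double-stranded by primer extension, the bound protein was detected with fluorescent anti-GST. E-scores, modified Wilcoxon-Mann-Whitney statistics, were given by the Universal PBM Analysis Suite to ungapped eight-base words pooled with their reverse complements after masliner normalisation.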
GGATACAC was tested, and the “PBM E-score” value was -0.164.
ACTGACTG was tested, and the “PBM E-score” value was -0.0797.
TAATACTA was tested, and the “PBM E-score” value was 0.304.
With AACGGACA the “PBM E-score” value was 0.0822.
For ACGGAGCC, the “PBM E-score” value was -0.337.
In the case of AGGCGTAC, the “PBM E-score” value was 0.105.
In the case of CCTAATGC, the “PBM E-score” value was -0.00656.
In the case of CTGATAAC, the “PBM E-score” value was 0.112.
In the case of ATCTAAAA, the “PBM E-score” value was 0.0263.
CGCACTCC was tested, and the “PBM E-score” value was -0.0923.
For AATTTTTC, the “PBM E-score” value was 0.0596.
For ACCCGAAT, the “PBM E-score” value was -0.108.
AACAAGTT was tested, and the “PBM E-score” value was 0.03.
In the case of AGTGCAGA, the “PBM E-score” value was -0.0919.
In the case of AAAACCGC, the “PBM E-score” value was 0.0701.
AGTACAGC was tested, and the “PBM E-score” value was -0.155.
With ACTCCTCA the “PBM E-score” value was -0.192.
For AGGTCGTA, the “PBM E-score” value was 0.0256.
In the case of AAACTCCA, the “PBM E-score” value was -0.00944.
With ATACAATC the “PBM E-score” value was 0.0676.
For ACGACTAG, the “PBM E-score” value was 0.074.
For ACGGGGCG, the “PBM E-score” value was -0.0903.
CACGACGC was tested, and the “PBM E-score” value was 0.0788.
In the case of CATGGCGC, the “PBM E-score” value was -0.018.
In the case of CGCCCGCC, the “PBM E-score” value was -0.189.
With CGCATCCG the “PBM E-score” value was -0.123.
AGATTTGC was tested, and the “PBM E-score” value was 0.135.
ATCCATTA was tested, and the “PBM E-score” value was 0.0706.
For AACGCATG, the “PBM E-score” value was 0.14.
In the case of ATACATCG, the “PBM E-score” value was 0.196.
For ATCGCCAA, the “PBM E-score” value was -0.119.
With ACCATGCG the “PBM E-score” value was 0.0184.
For GGGTCGCA, the “PBM E-score” value was -0.148.
For ATGTCCTC, the “PBM E-score” value was -0.00522.
In the case of CATTGGTA, the “PBM E-score” value was -0.135.
In the case of CGCCTATC, the “PBM E-score” value was -0.143.
GCTCTTGA was tested, and the “PBM E-score” value was -0.154.
CGTGTGGC was tested, and the “PBM E-score” value was 0.152.
For AGTCATGG, the “PBM E-score” value was 0.0552.
For ACTACCAG, the “PBM E-score” value was -0.162.
CTCACACC was tested, and the “PBM E-score” value was -0.0913.
AATAAAGT was tested, and the “PBM E-score” value was 0.104.
AGAGAATG was tested, and the “PBM E-score” value was 0.0874.
CCCTGCTA was tested, and the “PBM E-score” value was -0.311.
For GCTATGCC, the “PBM E-score” value was -0.255.
With TCTATCAA the “PBM E-score” value was 0.171.
AGCTACTG was tested, and the “PBM E-score” value was -0.0638.
With TGATTACA the “PBM E-score” value was 0.29.
TAACGCCA was tested, and the “PBM E-score” value was 0.144.
ATGCCTAG was tested, and the “PBM E-score” value was -0.0306.
With CAACCTCC the “PBM E-score” value was -0.25.
For ATCAAGAA, the “PBM E-score” value was 0.22.
For AGTATCCA, the “PBM E-score” value was -0.152.
For ACCCCTAT, the “PBM E-score” value was 0.0475.
With AAGATGAA the “PBM E-score” value was -0.078.
In the case of GTCAACGA, the “PBM E-score” value was 0.167.
For CGACCTGC, the “PBM E-score” value was -0.175.
In the case of CGATGTGC, the “PBM E-score” value was -0.0445.
With CAGTGTGA the “PBM E-score” value was 0.0998.
With GATGGCCA the “PBM E-score” value was -0.166.
ACTCCCAC was tested, and the “PBM E-score” value was -0.278.
For GTGCGTTA, the “PBM E-score” value was 0.259.
For TGATACAA, the “PBM E-score” value was 0.112.
In the case of ACCATTCT, the “PBM E-score” value was -0.115.
GACAGGAA was tested, and the “PBM E-score” value was -0.0107.
For CACCCTGA, the “PBM E-score” value was -0.21.
For CGATCCGA, the “PBM E-score” value was -0.187.
For CTGCGCAA, the “PBM E-score” value was 0.0184.
TAACTACA was tested, and the “PBM E-score” value was 0.147.
In the case of CAAAACAC, the “PBM E-score” value was 0.169.
With CACCCTCC the “PBM E-score” value was -0.188.
With CTGTATGA the “PBM E-score” value was -0.0143.
In the case of ACGTAGAG, the “PBM E-score” value was 0.387.
In the case of AAACCTTC, the “PBM E-score” value was -0.131.
For AACGAGCT, the “PBM E-score” value was -0.0043.
In the case of CCAGTAGC, the “PBM E-score” value was -0.185.
With GATTGTTA the “PBM E-score” value was 0.159.
CCTCAGCG was tested, and the “PBM E-score” value was -0.178.
AGTGGAAG was tested, and the “PBM E-score” value was -0.198.
In the case of ATGAACTG, the “PBM E-score” value was 0.0961.
For CCCGACTC, the “PBM E-score” value was -0.285.
In the case of CGTAGCAG, the “PBM E-score” value was 0.145.
In the case of GGACTTCA, the “PBM E-score” value was -0.319.
In the case of ACTTGGCA, the “PBM E-score” value was -0.166.
In the case of AGCCTATG, the “PBM E-score” value was -0.163.
GTTCTCAA was tested, and the “PBM E-score” value was 0.0454.
With CGACGCAC the “PBM E-score” value was 0.277.
With GATGGACC the “PBM E-score” value was -0.056.
With ACTTCGCG the “PBM E-score” value was 0.0331.
With ACTACAAG the “PBM E-score” value was 0.0642.
CGTCTGTC was tested, and the “PBM E-score” value was -0.0271.
With CTACAAGA the “PBM E-score” value was -0.0664.
AATACTCG was tested, and the “PBM E-score” value was 0.179.
With CGCTTTCA the “PBM E-score” value was -0.0607.
For GACATGAA, the “PBM E-score” value was 0.0509.
With CGCGCACG the “PBM E-score” value was 0.163.
With CAGCTCCG the “PBM E-score” value was -0.0639.
In the case of CTCTAACC, the “PBM E-score” value was -0.124.
CTTCTAAC was tested, and the “PBM E-score” value was -0.0232.
In the case of AACTATAA, the “PBM E-score” value was 0.081.
For TAAGCCTA, the “PBM E-score” value was 0.0163.
With CATGTAGC the “PBM E-score” value was -0.0785.
In the case of AAGCGTGC, the “PBM E-score” value was 0.0145.
For TCTTTGCA, the “PBM E-score” value was 0.0118.
In the case of ATGACCCG, the “PBM E-score” value was -0.254.
For GCATACGA, the “PBM E-score” value was 0.188.
CCGCAGAA was tested, and the “PBM E-score” value was -0.0505.
With CGTTTTCC the “PBM E-score” value was 0.132.
CTCAGGTC was tested, and the “PBM E-score” value was -0.0401.
CATGACCC was tested, and the “PBM E-score” value was -0.0865.
For CTCAACCC, the “PBM E-score” value was -0.124.
GCCACCAC was tested, and the “PBM E-score” value was 0.0383.
In the case of CACTTGCC, the “PBM E-score” value was -0.141.
With ATTTATGG the “PBM E-score” value was -0.0614.
CTGCCTAA was tested, and the “PBM E-score” value was 0.0174.
With GGAACAGA the “PBM E-score” value was -0.121.
For GGCGATGA, the “PBM E-score” value was 0.032.
In the case of CGGCCAGC, the “PBM E-score” value was -0.249.
For AGAGCTCT, the “PBM E-score” value was -0.168.
With AGCCCGAG the “PBM E-score” value was -0.15.
In the case of ACCAGCAC, the “PBM E-score” value was -0.031.
In the case of CCAAGCCG, the “PBM E-score” value was -0.249.
In the case of ATCGTCTA, the “PBM E-score” value was 0.0503.
For CGACGTGC, the “PBM E-score” value was 0.22.
For CGAACTTA, the “PBM E-score” value was -0.00879.
AAGGAGTA was tested, and the “PBM E-score” value was -0.211.
With CCTCGAAA the “PBM E-score” value was -0.0122.
AATTGTCG was tested, and the “PBM E-score” value was 0.0428.
With TATGGCCA the “PBM E-score” value was 0.0659.
AGTCGACA was tested, and the “PBM E-score” value was 0.138.
In the case of CTTAACTC, the “PBM E-score” value was 0.101.
For AAGGTATA, the “PBM E-score” value was -0.0569.
With ATCCGCGA the “PBM E-score” value was -0.0147.
For ACCAATGG, the “PBM E-score” value was -0.28.
With TAAGCGCA the “PBM E-score” value was -0.0542.
In the case of CACCCACC, the “PBM E-score” value was 0.00165.
CCCCAGAA was tested, and the “PBM E-score” value was -0.064.
GGCATACA was tested, and the “PBM E-score” value was -0.0373.
For CCCAGAGC, the “PBM E-score” value was -0.302.
ACAGTCAC was tested, and the “PBM E-score” value was 0.0509.
With TAAGTTGA the “PBM E-score” value was 0.108.
For ACTTCCCT, the “PBM E-score” value was -0.0484.
CAGGCGTA was tested, and the “PBM E-score” value was 0.0577.
GAGTGCCC was tested, and the “PBM E-score” value was -0.271.
GGTTCACA was tested, and the “PBM E-score” value was -0.0743.
With AAGCCACT the “PBM E-score” value was -0.198.
In the case of ACCCCTCC, the “PBM E-score” value was -0.278.
ACGAGACT was tested, and the “PBM E-score” value was 0.0545.
AAGGAGAT was tested, and the “PBM E-score” value was 0.0451.
In the case of CTAGCAAA, the “PBM E-score” value was -0.0312.
For CCGCAGGC, the “PBM E-score” value was -0.0769.
CATTCGAC was tested, and the “PBM E-score” value was 0.103.
For ACCCTACA, the “PBM E-score” value was -0.0646.
AAGCAGAA was tested, and the “PBM E-score” value was 0.0508.
In the case of CCTAGTGC, the “PBM E-score” value was -0.128.
With AATTGGGC the “PBM E-score” value was -0.125.
In the case of GAAAGCTA, the “PBM E-score” value was -0.168.
With AGACAGTA the “PBM E-score” value was 0.0897.
In the case of AGGGGTAG, the “PBM E-score” value was -0.284.
In the case of GATTTTCA, the “PBM E-score” value was 0.173.
In the case of AACGTCTG, the “PBM E-score” value was 0.239.
With AATATCAT the “PBM E-score” value was 0.213.
In the case of AATCCTAA, the “PBM E-score” value was -0.0686.
For ACTCAACT, the “PBM E-score” value was 0.0578.
For TCCACAAA, the “PBM E-score” value was -0.0157.
With ACGATTTA the “PBM E-score” value was 0.328.
In the case of GGAATCCA, the “PBM E-score” value was -0.172.
In the case of GGTAACGA, the “PBM E-score” value was 0.0123.
With ACGTATGA the “PBM E-score” value was 0.473.
For CTACGGCC, the “PBM E-score” value was -0.354.
In the case of TGAATGCA, the “PBM E-score” value was 0.136.
In the case of CGTTCCCC, the “PBM E-score” value was -0.187.
